Out of some 52,000 compounds screened, about 4,300 (8.3%) were called active. No stated cut-off is given here; in the data, active means survival mostly below about 52% (no sharp cut-off); inactive means mostly above about 56%. The list shows a part of the results.

In this experiment the test system is DeltatarO mutant. The experiment is described as follows: growth inhibition of S. aureus wild type versus tarO mutant, primary screen, teichoic acid synthesis inhibitors, RN4220, OD600 (AID 463173). To be noted: OD600, 18 h, hits give low values, screened at 18.75 µg/mL (by protocol).
Turning to `COc1ccc(NCc2cc3cc4c(cc3n(CC(=O)Nc3cccc(F)c3)c2=O)OCO4)cc1`, the survival is inactive: 112%.

In the case of `O=C(O)CCC(=O)Nc1ccccc1O`, the survival was inactive: 80%.

Consider `c1ccc2c(c1)[nH]c1c(N3CCOCC3)ncnc12`, for which the survival was inactive: 68%.

For the molecule `COC(=O)c1ccc(CSc2nc3c([nH]c4ccccc43)c(=O)n2-c2ccc(F)cc2)o1`, the survival was inactive: 80%.

Regarding `Clc1ccccc1N1CCN(Cc2nnc(-c3ccccc3)o2)CC1`, the survival is inactive: 50%.

For the molecule `O=C(Cn1c(=O)n(-c2ccccc2)c(=O)c2ccc(C(=O)NCc3ccc4c(c3)OCO4)cc21)Nc1ccc(F)cc1`, the survival was inactive: 64%.

Regarding `Cc1ccc(Cl)cc1-n1c(CCC(=O)O)ccc1-c1cccs1`, the survival was active: 38%.

For the molecule `COc1cc(OC)c(NC(=O)Cn2c(=O)c(C(F)(F)F)nc3ccccc32)cc1Cl`, the survival is inactive: 66%.

With `CCc1cccc(NC(=O)Cn2c(=O)n(-c3ccccc3C)c(=O)c3c2c2cc(C)ccc2n3C)c1`, the survival was inactive: 85%.

Consider `CCc1ccc(C2CC(=O)c3c([nH]c(C(=O)OC4CCC(C)CC4)c3C)C2)cc1` (stereo unspecified), for which the survival is inactive: 89%.

For the molecule `COc1ccc(S(=O)(=O)NCc2cccn2Cc2cccc(C)c2)cc1Cl`, the survival was inactive: 91%.

For `COc1ccc(-c2cc(C(F)(F)F)nc(SCC(=O)N3CCCCC3)n2)cc1OC`, the survival was inactive: 71%.

Regarding `CCc1cccc(C)c1NC(=O)C(CC)n1nc(C)c2c(C)n(-c3ccccc3)nc2c1=O` (stereo unspecified), the survival was inactive: 64%.

With `COc1ccc(-c2nc(SCC(=O)Nc3ccccc3)c(-c3ccc(F)cc3)[nH]2)cc1OC`, the survival was inactive: 49%.

As to `COc1ccc(OC)c(S(=O)(=O)N2Cc3ccccc3CC2C(=O)Nc2ccc(C)cc2C)c1` (stereo unspecified), the survival was inactive: 62%.

Take `CCS(=O)(=O)N1CCc2cc(C(=O)N3CCN(c4ccc(OC)cc4)CC3)ccc21`: the survival was active: 40%.

For `COc1cccc(-n2c(SCC(=O)N3CCc4ccccc43)nc3c([nH]c4ccccc43)c2=O)c1`, the survival was inactive: 81%.

For `O=C(Nc1ccc(F)cc1F)c1cccc2c1C(=O)N(C1CCCCC1)C2`, the survival was inactive: 94%.

For `CCN(CC)CCNc1nc2c(c(=O)n(C)c(=O)n2C)n1CCc1ccccc1`, the survival is inactive: 103%.

In the case of `Cc1cccc(CSc2nc3c(c(=O)[nH]2)CCC3)c1`, the survival is inactive: 69%.

Take `CSc1ncc(Cl)c(C(=O)Nc2cc(C(F)(F)F)ccc2Cl)n1`: the survival is inactive: 84%.

For the molecule `Cc1cnc(NC(=O)CSc2nc3sc4c(c3c(=O)n2C)CCCC4)s1`, the survival was inactive: 78%.

For `COc1cc2c(=O)n(Cc3ccco3)c(=O)n(CC(=O)Nc3ccc(F)cc3)c2cc1OC`, the survival is inactive: 71%.

As to `CCOc1cc2[nH]c(=O)n(Cc3ccc(C(=O)N4CCN(c5ccccc5)CC4)cc3)c(=O)c2cc1OCC`, the survival was inactive: 98%.

For the molecule `Cc1nc(-c2ccc(Cl)cc2)sc1CCNC(=O)C(=O)Nc1ccc2c(c1)OCCO2`, the survival is inactive: 95%.

`O=C(CSc1nc(=O)n(Cc2cccnc2)c2c1CCC2)Nc1cccc(Cl)c1`: the survival is inactive: 70%.

In the case of `O=C(O)c1ccc(NCc2nc3ccccc3n2CCOc2ccccc2Cl)cc1`, the survival is inactive: 59%.

In the case of `COCCn1c(=O)[nH]c2cc(C(=O)N3CCN(c4ccc(Cl)cc4)CC3)ccc2c1=O`, the survival is inactive: 76%.

As to `CCc1cc(C(=O)OC)c(NC(=O)CC2SC(=NC)N(C)C2=O)s1` (stereo unspecified), the survival is inactive: 106%.

`Cc1ccc(CN2CCC(CNC(=O)c3cnn(-c4ccccc4)c3C3CCN(C(=O)OC(C)(C)C)CC3)CC2)cc1`: the survival is inactive: 77%.

For `COc1ccc(NC(=O)c2oc3ccc(S(=O)(=O)N4CCCCC4)cc3c2C)cc1Cl`, the survival was inactive: 77%.

For the molecule `COc1ccc(NC(=O)c2cc(C(C)=O)n3ccccc23)cc1`, the survival was inactive: 78%.

As to `Cc1ccc2nc(NC(=O)c3nc(SCc4ccccc4F)ncc3Cl)sc2c1`, the survival is inactive: 54%.

Regarding `O=C(CSc1ncc2c(n1)-c1cc(Cl)ccc1N(Cc1ccccc1)S2(=O)=O)Nc1ccc(F)cc1F`, the survival is inactive: 70%.

As to `CC(C)Oc1ccc(C(=O)N2CCN(c3nc4c(F)cc(F)cc4s3)CC2)cc1`, the survival is inactive: 108%.

Regarding `O=c1c(N2CCN(c3ccccc3)CC2)csc2ccc(Cl)cc12`, the survival was inactive: 71%.

In the case of `O=C(CCSCc1cccc(Cl)c1)NCc1ccccc1Cl`, the survival is inactive: 60%.

For the molecule `CCCCn1cc(S(=O)(=O)c2ccccc2)c(=O)c2cc(F)c(N3CCN(CCC)CC3)cc21`, the survival is inactive: 78%.

`CC1CCCN(c2ncnc3c2cnn3-c2ccc(F)cc2)C1` (stereo unspecified): the survival was inactive: 81%.

As for `CCN1c2ccccc2-n2cccc2C12CCN(C(=O)Nc1ccccc1Br)CC2`, the survival was inactive: 91%.

As for `CCOCCn1ccc2c(OCC(=O)NCc3ccc(F)cc3)cccc2c1=O`, the survival was inactive: 105%.

Turning to `CCOC(=O)N1CCC(NC(=O)c2cnn(-c3ccc(F)cc3)c2-n2cccc2)CC1`, the survival was inactive: 102%.

Turning to `COc1ccc(N(C)C(=O)c2nn(-c3ccc(C)cc3)c(=O)n(C)c2=O)c(OC)c1`, the survival is inactive: 82%.

Consider `Cc1cc(C)cc(NC(=O)N2CCC(C(N)=O)(N3CCCCC3)CC2)c1`, for which the survival was inactive: 103%.

For the molecule `COc1ccc(CNC(=O)CC(C)n2nc(C)cc2C)cc1` (stereo unspecified), the survival is inactive: 86%.

Regarding `CCN(CC)c1cc(C)c2cc(NC(=O)/C=C/c3ccccc3Cl)ccc2n1`, the survival was inactive: 53%.

With `N#CCC(=O)N/N=C/c1ccc(OC2CSC2)cc1`, the survival is inactive: 80%.

On to `COc1ccc(N2CC(NC(=O)C(=O)c3c[nH]c4ccccc34)CC2=O)cc1` (stereo unspecified), for which the survival is inactive: 80%.

As for `Cc1ccc(-c2nn(-c3ccc(F)cc3F)c3c2cnc2ccc(F)cc23)cc1`, the survival is inactive: 70%.

As for `Cc1cccc(N(C)S(=O)(=O)c2ccc(-c3cc(C)no3)s2)c1`, the survival was inactive: 128%.

For `Cc1ccc(S(=O)(=O)N2CCc3cc(C(=O)N(C)Cc4ccccc4)ccc32)cc1`, the survival was inactive: 74%.

In the case of `CC(=O)N1CCc2c(sc3c2c(=O)n(-c2ccc(F)cc2)c(=O)n3Cc2cc(C)ccc2C)C1`, the survival is inactive: 112%.

In the case of `COc1ccc(-c2noc(-c3ccc(N4CCN(C)CC4)c([N+](=O)[O-])c3)n2)cc1`, the survival was active: 42%.

Regarding `COc1ccc(S(=O)(=O)c2c(O)c(C)cc(NS(=O)(=O)c3ccc(Cl)cc3)c2C(C)C)cc1`, the survival is inactive: 58%.

For the molecule `CC(C)OC(=O)c1cc2c(ccn2C)n1CCC#N`, the survival is inactive: 96%.

As for `COc1ccc(C2CC(=O)N(Cc3ccccc3C)c3c2c(C)nn3-c2nc(C)cc(C)n2)c(OC)c1` (stereo unspecified), the survival is inactive: 80%.

The values above are taken from PubChem BioAssay AID463173 (ICCB-Longwood Screening Facility, Harvard Medical School, 2010).
